{"source": "the antibiotic and cytotoxicity screens of Wong et al. (2023)", "note": "The other results are listed elsewhere or left out.", "data": [{"test_system": "HepG2", "assay": "cytotoxicity call (relative viability < 0.9)", "settings": "10 µM", "values": [{"smiles": "C[C@H]1CCCCO[C@@H](CN(C)C(=O)Nc2ccccc2)[C@@H](C)CN([C@@H](C)CO)C(=O)c2cc(NC(=O)Nc3ccccc3)ccc2O1", "cytotoxicity call": "inactive"}, {"smiles": "COc1ccc(CN(C)C[C@H]2Oc3ccc(NC(=O)C4CC4)cc3CC(=O)N([C@H](C)CO)C[C@@H]2C)cc1", "cytotoxicity call": "inactive"}, {"smiles": "C[C@H](CO)N1C[C@H](C)[C@H](CN(C)Cc2ccc3c(c2)OCO3)Oc2c(NC(=O)C3CC3)cccc2C1=O", "cytotoxicity call": "inactive"}, {"smiles": "C[C@@H]1CN([C@H](C)CO)C(=O)c2cc(NC(=O)Nc3ccc4c(c3)OCO4)ccc2O[C@@H](C)CCCCO[C@H]1CN(C)Cc1ccc(C(=O)O)cc1", "cytotoxicity call": "inactive"}, {"smiles": "Cc1ccc(S(=O)(=O)N[C@H]2CC[C@H](CC(=O)NCc3ccc(Cl)c(Cl)c3)O[C@H]2CO)cc1", "cytotoxicity call": "inactive"}, {"smiles": "C[C@@H]1CN([C@@H](C)CO)C(=O)Cc2cc(NC(=O)C3CC3)ccc2O[C@@H]1CN(C)S(=O)(=O)c1cn(C)cn1", "cytotoxicity call": "inactive"}, {"smiles": "C[C@H](CO)N1C[C@H](C)[C@H](CN(C)Cc2ccc3c(c2)OCO3)Oc2ncc(C#CCN(C)C)cc2C1=O", "cytotoxicity call": "inactive"}, {"smiles": "C[C@H](CO)N1C[C@H](C)[C@@H](CN(C)C(=O)C2CCCCC2)Oc2cc(C#C[C@@H](C)O)ccc2S1(=O)=O", "cytotoxicity call": "inactive"}, {"smiles": "C[C@H](CO)N1C[C@H](C)[C@H](CN(C)Cc2ccc(Oc3ccccc3)cc2)Oc2c(NC(=O)Nc3ccc4c(c3)OCO4)cccc2C1=O", "cytotoxicity call": "active"}, {"smiles": "COCC(=O)Nc1ccc2c(c1)C(=O)N(C)[C@H]1CC[C@H](CC(=O)N3CCc4ccccc4C3)O[C@@H]1CO2", "cytotoxicity call": "inactive"}, {"smiles": "CC(C)(C)[S@@](=O)N1Cc2cc(C(=O)N[C@H]3CCN(Cc4ccccc4)C3)nc(-c3cccc(-c4ccncc4)c3)c2[C@H]1CCO", "cytotoxicity call": "inactive"}, {"smiles": "COc1ccc(S(=O)(=O)N(C)C[C@H]2Oc3ccc(NC(=O)Cn4cnnn4)cc3C(=O)N([C@H](C)CO)C[C@@H]2C)cc1", "cytotoxicity call": "inactive"}, {"smiles": "C[C@@H]1CN([C@@H](C)CO)C(=O)c2cccc(NS(=O)(=O)c3cn(C)cn3)c2O[C@H]1CN(C)S(=O)(=O)c1cn(C)cn1", "cytotoxicity call": "inactive"}, {"smiles": "C[C@@H]1CN([C@H](C)CO)C(=O)c2cc(C#CC3(O)CCCC3)cnc2O[C@@H]1CN(C)C(=O)Nc1ccc2c(c1)OCO2", "cytotoxicity call": "inactive"}, {"smiles": "Cc1noc(C)c1S(=O)(=O)N(C)C[C@@H]1Oc2ccc(NC(=O)CCN3CCOCC3)cc2CC(=O)N([C@@H](C)CO)C[C@H]1C", "cytotoxicity call": "inactive"}, {"smiles": "Cc1noc(C)c1S(=O)(=O)Nc1ccc2c(c1)CC(=O)N([C@H](C)CO)C[C@@H](C)[C@H](CN(C)S(=O)(=O)c1ccccc1)O2", "cytotoxicity call": "inactive"}, {"smiles": "Cn1cnc(S(=O)(=O)N2C[C@H](O)COC[C@@H]3O[C@@H](CC(=O)NCc4cc(F)cc(F)c4)CC[C@H]32)c1", "cytotoxicity call": "inactive"}, {"smiles": "C[C@@H]1CN([C@@H](C)CO)C(=O)Cc2cc(NC(=O)Cn3cnnn3)ccc2O[C@@H]1CN(C)CC1CCCCC1", "cytotoxicity call": "inactive"}, {"smiles": "C[C@@H](O)C#Cc1cnc2c(c1)C(=O)N([C@@H](C)CO)C[C@H](C)[C@H](CN(C)C(=O)CN1CCOCC1)O2", "cytotoxicity call": "inactive"}, {"smiles": "O=C1CCC(=O)N1CN1CCOCC1", "cytotoxicity call": "inactive"}, {"smiles": "C[C@@H]1CN([C@H](C)CO)C(=O)c2cc(NC(=O)Nc3ccc4c(c3)OCO4)ccc2O[C@@H](C)CCCCO[C@@H]1CN(C)C(=O)CCC(F)(F)F", "cytotoxicity call": "inactive"}, {"smiles": "CN(C)C(=O)c1ccc(-c2cccc(-c3nc(C(=O)NC4CCCCC4)cc4c3[C@@H](CCO)N([S@](=O)C(C)(C)C)C4)c2)cc1", "cytotoxicity call": "inactive"}, {"smiles": "Cc1noc(C)c1NC(=O)Nc1cccc2c1O[C@H](CN(C)C(=O)NC(C)C)[C@@H](C)CN([C@@H](C)CO)C2=O", "cytotoxicity call": "inactive"}, {"smiles": "O=C(C[C@@H]1C=C[C@@H](NC(=O)Cc2ccccn2)[C@@H](CO)O1)NCCCN1CCOCC1", "cytotoxicity call": "inactive"}, {"smiles": "C[C@@H]1CN([C@@H](C)CO)C(=O)Cc2cc(NS(=O)(=O)c3cccs3)ccc2O[C@@H]1CN(C)S(=O)(=O)c1cccs1", "cytotoxicity call": "inactive"}, {"smiles": "CC[N+](C)(C)c1cccc(O)c1.[Cl-]", "cytotoxicity call": "inactive"}, {"smiles": "COc1ccc(S(=O)(=O)N(C)C[C@@H]2Oc3c(NC(=O)NC(C)C)cccc3C(=O)N([C@@H](C)CO)C[C@@H]2C)cc1", "cytotoxicity call": "inactive"}, {"smiles": "C[C@@H]1CCCCO[C@@H](CN(C)Cc2ccc(C(=O)O)cc2)[C@@H](C)CN([C@H](C)CO)C(=O)c2cc(NC(=O)Nc3ccc(F)cc3)ccc2O1", "cytotoxicity call": "inactive"}, {"smiles": "COc1ccc(CN(C)C[C@@H]2Oc3ccc(NC(=O)Cn4cnnn4)cc3CC(=O)N([C@H](C)CO)C[C@H]2C)cc1", "cytotoxicity call": "inactive"}]}]}
